{"source": "the supplement of paper PMC4604168 (melanoma cell lines)", "note": "The other results are listed elsewhere or left out. Most values come without repeats; read them as rough.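 Also: cell number obtained by counting DAPI-stained nuclei in high-throughput microscope images with image analysis software, screen run in 1,536-well plates.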", "data": [{"tested_on": "COLO792", "experiment": "cell count relative to DMSO control; melanoma cells; higher = more viable cells", "conditions": "library dose: low library concentration; 72 h", "units": {"cell count": "%"}, "values": [{"smiles": "C=CCNC1=C2C[C@@H](C)C[C@H](OC)[C@H](O)[C@@H](C)/C=C(\\C)[C@H](OC(N)=O)[C@@H](OC)/C=C\\C=C(/C)C(=O)NC(=CC1=O)C2=O", "note": "[Tanespimycin] + Cn1cc(/C=C2\\C(=O)Nc3cccnc32)c2ccccc21 [GW441756] (first compound 0.002 µM, partner dose 0.4 µM)", "cell count": 91}, {"smiles": "CNC(=O)c1cc(Oc2ccc(NC(=O)Nc3ccc(Cl)c(C(F)(F)F)c3)cc2)ccn1", "note": "[sorafenib] + c1cc(-c2cnn3cc(-c4ccc(OCCN5CCCCC5)cc4)cnc23)ccn1 [Dorsomorphin] (first compound 0.4 µM, partner dose 0.4 µM)", "cell count": 123}, {"smiles": "C[C@@H](Oc1cc(-c2cnn(C3CCNCC3)c2)cnc1N)c1c(Cl)ccc(F)c1Cl", "note": "[Crizotinib] + COc1cc(N2CCC(N3CCN(C)CC3)CC2)ccc1Nc1ncc(Cl)c(Nc2ccccc2S(=O)(=O)C(C)C)n1 [NVP-TAE684] (first compound 0.2 µM, partner dose 0.08 µM)", "cell count": 103}, {"smiles": "CNC(=O)c1cc(Oc2ccc(NC(=O)Nc3ccc(Cl)c(C(F)(F)F)c3)cc2)ccn1", "note": "[sorafenib] + CCCCCCCCCCCC1=C(O)C(=O)C=C(O)C1=O [Embelin] (first compound 0.4 µM, partner dose 1.2 µM)", "cell count": 118}, {"smiles": "CS(=O)(=O)CCNCc1ccc(-c2ccc3ncnc(Nc4ccc(OCc5cccc(F)c5)c(Cl)c4)c3c2)o1", "note": "[lapatinib] + O=C(Nc1ccccc1)c1cc([N+](=O)[O-])ccc1Cl [GW9662] (first compound 0.8 µM, partner dose 2 µM)", "cell count": 72.3}, {"smiles": "CS(=O)(=O)CCNCc1ccc(-c2ccc3ncnc(Nc4ccc(OCc5cccc(F)c5)c(Cl)c4)c3c2)o1", "note": "[lapatinib] + COc1ccc2c(c1)CCC1C2CCC2(C)C(NCCCCCCN3C(=O)C=CC3=O)CCC12 [U73122] (first compound 0.8 µM, partner dose 0.4 µM)", "cell count": 87.1}, {"smiles": "CNC(=O)c1cc(Oc2ccc(NC(=O)Nc3ccc(Cl)c(C(F)(F)F)c3)cc2)ccn1", "note": "[sorafenib] + O=C(Nc1ccccc1)c1cc([N+](=O)[O-])ccc1Cl [GW9662] (first compound 0.4 µM, partner dose 2 µM)", "cell count": 118}, {"smiles": "CS(=O)(=O)CCNCc1ccc(-c2ccc3ncnc(Nc4ccc(OCc5cccc(F)c5)c(Cl)c4)c3c2)o1", "note": "[lapatinib] + COc1ccc(-c2ccc3c(N4CCOCC4)nc(N4C[C@@H](C)O[C@@H](C)C4)nc3n2)cc1CO [KU0063794] (first compound 0.8 µM, partner dose 0.02 µM)", "cell count": 83.2}, {"smiles": "CS(=O)(=O)CCNCc1ccc(-c2ccc3ncnc(Nc4ccc(OCc5cccc(F)c5)c(Cl)c4)c3c2)o1", "note": "[lapatinib] + O=C1NC(=O)/C(=C/c2ccc(-c3ccc(F)cc3O)o2)S1 [AS252424] (first compound 0.8 µM, partner dose 1 µM)", "cell count": 77.5}, {"smiles": "CNC(=O)c1cc(Oc2ccc(NC(=O)Nc3ccc(Cl)c(C(F)(F)F)c3)cc2)ccn1", "note": "[sorafenib] + COc1cc(N2CCC(N3CCN(C)CC3)CC2)ccc1Nc1ncc(Cl)c(Nc2ccccc2S(=O)(=O)C(C)C)n1 [NVP-TAE684] (first compound 0.4 µM, partner dose 0.08 µM)", "cell count": 98.6}, {"smiles": "CN1CCN(c2ccc3nc(-c4c(N)c5c(F)cccc5[nH]c4=O)[nH]c3c2)CC1", "note": "[Dovitinib] + COc1cc2ncnc(Nc3ccc(Oc4ccccc4)cc3)c2cc1OC [SrcI1] (first compound 0.1 µM, partner dose 2 µM)", "cell count": 89.8}, {"smiles": "CN1CCN(c2ccc3nc(-c4c(N)c5c(F)cccc5[nH]c4=O)[nH]c3c2)CC1", "note": "[Dovitinib] + CC(C)CCN1c2nc(Nc3cc(F)c(O)c(F)c3)ncc2N(C)C(=O)C1C [BID1870] (first compound 0.1 µM, partner dose 0.2 µM)", "cell count": 99.7}, {"smiles": "CN1CCN(c2ccc3nc(-c4c(N)c5c(F)cccc5[nH]c4=O)[nH]c3c2)CC1", "note": "[Dovitinib] + O=C1NC(=O)/C(=C/c2ccc(-c3ccc(F)cc3O)o2)S1 [AS252424] (first compound 0.1 µM, partner dose 1 µM)", "cell count": 94.3}, {"smiles": "C=CCNC1=C2C[C@@H](C)C[C@H](OC)[C@H](O)[C@@H](C)/C=C(\\C)[C@H](OC(N)=O)[C@@H](OC)/C=C\\C=C(/C)C(=O)NC(=CC1=O)C2=O", "note": "[Tanespimycin] + CCN(CC)CCCCNc1ncc2cc(-c3cc(OC)cc(OC)c3)c(NC(=O)NC(C)(C)C)nc2n1 [PD173074] (first compound 0.002 µM, partner dose 0.1 µM)", "cell count": 90.6}]}]}
